Measurements reported in US20250122256A1 (TREX BIO, published 2025).

T1: human TNFR2 (hTNFR2) (human, UniProt P20333 23-257, limits assumed)
T1 construct: Used in solution as the analyte over the immobilised fusion molecule in BLI; also called TNFR-p75
T1 sequence (looked up): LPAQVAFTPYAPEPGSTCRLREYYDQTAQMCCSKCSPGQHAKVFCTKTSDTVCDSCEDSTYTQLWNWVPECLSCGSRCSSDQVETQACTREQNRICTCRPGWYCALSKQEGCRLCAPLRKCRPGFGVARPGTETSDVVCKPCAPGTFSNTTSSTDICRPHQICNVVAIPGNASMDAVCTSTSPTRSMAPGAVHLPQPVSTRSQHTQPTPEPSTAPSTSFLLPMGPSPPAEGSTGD

T2: human TNFR1 (hTNFR1) (human, UniProt P19438 30-211, limits assumed)
T2 construct: Used in solution as the analyte over the immobilised fusion molecule in BLI; also called TNFR-p55
T2 sequence (looked up): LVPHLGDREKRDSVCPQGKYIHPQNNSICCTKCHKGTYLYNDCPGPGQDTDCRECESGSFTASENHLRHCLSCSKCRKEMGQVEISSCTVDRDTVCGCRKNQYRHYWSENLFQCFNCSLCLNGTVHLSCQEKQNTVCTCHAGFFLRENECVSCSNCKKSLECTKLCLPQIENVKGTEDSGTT

B1: Variant 4 (D143N, A145R (N-term Fc) TNF-alpha variant fusion molecule) (Fc fusion)
chain: [here about 400 residues with a human IgG1 Fc without letters]GGGGSSSRTPSDKPVAHVVANPQAEGQLQWLNRRANALLANGVELRDNQLVVPSEGLYLIYSQVLFKGQGCPSTHVLLTHTISRIAVSYQTKVNLLSAIKSPCQRETPEGAEAKPWYEPIYLGGVFQLEKGDRLSAEINRPDYLNFRESGQVYFGIIALGGGGSSSRTPSDKPVAHVVANPQAEGQLQWLNRRANALLANGVELRDNQLVVPSEGLYLIYSQVLFKGQGCPSTHVLLTHTISRIAVSYQTKVNLLSAIKSPCQRETPEGAEAKPWYEPIYLGGVFQLEKGDRLSAEINRPDYLNFRESGQVYFGIIAL
notes: N-terminal IgG1 Fc L234A/L235A/P331S followed by a single-chain trimer of D143N/A145R TNF-alpha units; also called D143N/A145R, N-terminal Fc
B2: Variant 6 (D143Y, A145G (N-term Fc) TNF-alpha variant fusion molecule) (Fc fusion)
chain: [here about 400 residues with a human IgG1 Fc without letters]GGGGSSSRTPSDKPVAHVVANPQAEGQLQWLNRRANALLANGVELRDNQLVVPSEGLYLIYSQVLFKGQGCPSTHVLLTHTISRIAVSYQTKVNLLSAIKSPCQRETPEGAEAKPWYEPIYLGGVFQLEKGDRLSAEINRPDYLYFGESGQVYFGIIALGGGGSSSRTPSDKPVAHVVANPQAEGQLQWLNRRANALLANGVELRDNQLVVPSEGLYLIYSQVLFKGQGCPSTHVLLTHTISRIAVSYQTKVNLLSAIKSPCQRETPEGAEAKPWYEPIYLGGVFQLEKGDRLSAEINRPDYLYFGESGQVYFGIIAL
notes: N-terminal IgG1 Fc L234A/L235A/P331S followed by a single-chain trimer of D143Y/A145G TNF-alpha units; also called D143Y/A145G, N-terminal Fc
B3: Variant 1 (D143N (C-term Fc) TNF-alpha variant fusion molecule) (Fc fusion)
chain: [here about 150 residues without letters]GGGGSSSRTPSDKPVAHVVANPQAEGQLQWLNRRANALLANGVELRDNQLVVPSEGLYLIYSQVLFKGQGCPSTHVLLTHTISRIAVSYQTKVNLLSAIKSPCQRETPEGAEAKPWYEPIYLGGVFQLEKGDRLSAEINRPDYLNFAESGQVYFGIIALGGGGSSSRTPSDKPVAHVVANPQAEGQLQWLNRRANALLANGVELRDNQLVVPSEGLYLIYSQVLFKGQGCPSTHVLLTHTISRIAVSYQTKVNLLSAIKSPCQRETPEGAEAKPWYEPIYLGGVFQLEKGDRLSAEINRPDYLNFAESGQVYFGIIALGGGGS[here human IgG1 Fc with C220S L234A L235A P331S (EU numbers) without letters]
B4: Variant 2 (A145R (C-term Fc) TNF-alpha variant fusion molecule) (Fc fusion)
chain: [here about 150 residues without letters]GGGGSSSRTPSDKPVAHVVANPQAEGQLQWLNRRANALLANGVELRDNQLVVPSEGLYLIYSQVLFKGQGCPSTHVLLTHTISRIAVSYQTKVNLLSAIKSPCQRETPEGAEAKPWYEPIYLGGVFQLEKGDRLSAEINRPDYLDFRESGQVYFGIIALGGGGSSSRTPSDKPVAHVVANPQAEGQLQWLNRRANALLANGVELRDNQLVVPSEGLYLIYSQVLFKGQGCPSTHVLLTHTISRIAVSYQTKVNLLSAIKSPCQRETPEGAEAKPWYEPIYLGGVFQLEKGDRLSAEINRPDYLDFRESGQVYFGIIALGGGGS[here human IgG1 Fc with C220S L234A L235A P331S (EU numbers) without letters]
B5: Variant 3 (D143N, A145R (C-term Fc) TNF-alpha variant fusion molecule) (Fc fusion)
chain: [here about 150 residues without letters]GGGGSSSRTPSDKPVAHVVANPQAEGQLQWLNRRANALLANGVELRDNQLVVPSEGLYLIYSQVLFKGQGCPSTHVLLTHTISRIAVSYQTKVNLLSAIKSPCQRETPEGAEAKPWYEPIYLGGVFQLEKGDRLSAEINRPDYLNFRESGQVYFGIIALGGGGSSSRTPSDKPVAHVVANPQAEGQLQWLNRRANALLANGVELRDNQLVVPSEGLYLIYSQVLFKGQGCPSTHVLLTHTISRIAVSYQTKVNLLSAIKSPCQRETPEGAEAKPWYEPIYLGGVFQLEKGDRLSAEINRPDYLNFRESGQVYFGIIALGGGGS[here human IgG1 Fc with C220S L234A L235A P331S (EU numbers) without letters]
notes: also called D143N/A145R, C-terminal Fc
B6: Variant 5 (D143Y, A145G (C-term Fc) TNF-alpha variant fusion molecule) (Fc fusion)
chain: [here about 150 residues without letters]GGGGSSSRTPSDKPVAHVVANPQAEGQLQWLNRRANALLANGVELRDNQLVVPSEGLYLIYSQVLFKGQGCPSTHVLLTHTISRIAVSYQTKVNLLSAIKSPCQRETPEGAEAKPWYEPIYLGGVFQLEKGDRLSAEINRPDYLYFGESGQVYFGIIALGGGGSSSRTPSDKPVAHVVANPQAEGQLQWLNRRANALLANGVELRDNQLVVPSEGLYLIYSQVLFKGQGCPSTHVLLTHTISRIAVSYQTKVNLLSAIKSPCQRETPEGAEAKPWYEPIYLGGVFQLEKGDRLSAEINRPDYLYFGESGQVYFGIIALGGGGS[here human IgG1 Fc with C220S L234A L235A P331S (EU numbers) without letters]
notes: also called D143Y/A145G, C-terminal Fc; D143Y/A145G TNF-alpha variant fusion molecule

Key:
human TNFR2 (hTNFR2) [1] = biological target: T1, human TNFR2 (hTNFR2); assay: BLI, fusion molecule on anti-IgG Fc biosensor, hTNFR2 in solution, 30 C
Experimental: (§1) The binding affinity and selectivity of TNF-alpha variant fusion molecules for human TNFR2 (hTNFR2) and human TNFR1 (hTNFR1) receptors was analyzed by bio-layer interferometry (BLI). BLI binding studies were conducted using standard methods, where recombinant TNF-alpha variant fusion molecule was immobilized on the biosensor tip for experimentation. All experiments were performed at 30° C. with shaking at 1,000 r.p.m, and anti-IgG Fc biosensors were pre-equilibrated in K buffer, consisting of a 1/10 dilution of 0.2% BSA, 0.02% Tween20, 0.05% ProClin300 into PBS (138 mM NaCl, 2.7 mM KCl pH 7.4) for at least 300 seconds before use in experiments. 2 g/mL TNF-alpha variant fusion molecule was loaded onto anti-IgG Fc biosensors until a loading height of 0.6 nm was reached and flowed the difference in concentrations of hTNFR2 or hTNFR1, or buffer as control, for 200 seconds. Then both dissociate in K buffer for 400 seconds. Data was analyzed using standard methods. Calculated binding affinity is seen in Table 5.

human TNFR2 (hTNFR2) [2] = biological target: T1, human TNFR2 (hTNFR2); assay: BLI, ratio of KD to wild-type fusion
Experimental: as §1

human TNFR1 (hTNFR1) [3] = biological target: T2, human TNFR1 (hTNFR1); assay: BLI, fusion molecule on anti-IgG Fc biosensor, hTNFR1 in solution
Experimental: as §1

human TNFR1 (hTNFR1) [4] = biological target: T2, human TNFR1 (hTNFR1); assay: BLI, fusion molecule on anti-IgG Fc biosensor, hTNFR1 in solution, 30 C
Experimental: as §1

human TNFR1 (hTNFR1) [5] = biological target: T2, human TNFR1 (hTNFR1); assay: BLI, ratio of KD to wild-type fusion
Experimental: as §1

Kd (human TNFR2 (hTNFR2) [1]) [nM] | fold decrease in binding affinity against the wild-type TNF-alpha variant fusion molecule (human TNFR2 (hTNFR2) [2]) [fold] | binding result (human TNFR1 (hTNFR1) [3]) | Kd (human TNFR1 (hTNFR1) [4]) [nM] | fold decrease in binding affinity against the wild-type TNF-alpha variant fusion molecule (human TNFR1 (hTNFR1) [5]) [fold] | Binder
210 | 6.2 | no binding |  |  | B1
164 | 4.8 | no binding |  |  | B2
122 | 3.6 |  | 3180 | 416 | B3
67.6 | 2 |  | 333 | 43.5 | B4
238 | 7 | no binding |  |  | B5
258 | 7.6 | no binding |  |  | B6
